# Article PMC4336329 (PLoS ONE, 2015)
# About 2,200 (0.71%) of roughly 310,000 compounds showed an effect of 50% or more. The effect is printed as a negative number. This is one part of the list.
# Target: human ether-à-go-go-related gene (hERG) potassium channel (human, UniProt Q12809)
# Test: primary screen, population patch clamp on CHO cells stably expressing hERG
# Sequence of human ether-à-go-go-related gene (hERG) potassium channel (Q12809 whole entry, looked up): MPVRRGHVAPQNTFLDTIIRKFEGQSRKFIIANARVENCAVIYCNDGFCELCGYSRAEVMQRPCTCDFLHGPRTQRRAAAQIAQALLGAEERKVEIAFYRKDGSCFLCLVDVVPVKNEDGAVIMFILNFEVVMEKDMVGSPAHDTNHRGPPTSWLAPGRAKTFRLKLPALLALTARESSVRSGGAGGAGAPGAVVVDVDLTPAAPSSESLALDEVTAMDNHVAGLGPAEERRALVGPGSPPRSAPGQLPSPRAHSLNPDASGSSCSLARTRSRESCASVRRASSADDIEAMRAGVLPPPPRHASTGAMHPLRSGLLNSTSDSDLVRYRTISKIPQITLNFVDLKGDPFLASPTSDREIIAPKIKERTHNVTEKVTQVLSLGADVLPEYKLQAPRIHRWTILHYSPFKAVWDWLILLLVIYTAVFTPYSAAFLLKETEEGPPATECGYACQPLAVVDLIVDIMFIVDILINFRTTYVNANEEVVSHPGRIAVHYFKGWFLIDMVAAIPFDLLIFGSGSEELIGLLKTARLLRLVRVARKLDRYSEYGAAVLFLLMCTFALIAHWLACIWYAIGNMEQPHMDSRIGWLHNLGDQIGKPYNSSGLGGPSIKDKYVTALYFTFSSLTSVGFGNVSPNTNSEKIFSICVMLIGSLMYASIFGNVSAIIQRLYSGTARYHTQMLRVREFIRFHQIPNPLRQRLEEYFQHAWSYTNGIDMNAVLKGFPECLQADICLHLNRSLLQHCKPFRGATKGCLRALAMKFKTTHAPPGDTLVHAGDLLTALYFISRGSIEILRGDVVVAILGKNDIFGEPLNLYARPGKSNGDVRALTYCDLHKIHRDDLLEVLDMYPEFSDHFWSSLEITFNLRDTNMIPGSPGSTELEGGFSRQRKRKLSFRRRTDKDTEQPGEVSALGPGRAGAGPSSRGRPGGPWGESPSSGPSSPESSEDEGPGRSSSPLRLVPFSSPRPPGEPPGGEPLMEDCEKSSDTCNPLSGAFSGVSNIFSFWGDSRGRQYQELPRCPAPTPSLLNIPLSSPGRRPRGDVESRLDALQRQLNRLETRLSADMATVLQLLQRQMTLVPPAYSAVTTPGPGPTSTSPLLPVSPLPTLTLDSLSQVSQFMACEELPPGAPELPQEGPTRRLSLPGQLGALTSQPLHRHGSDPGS
row,Compound,"hERG current change (%, negative = inhibition) at 1uM"
1,O=C1c2ccccc2NC(c2ccc(-c3cccc([N+](=O)[O-])c3)o2)N1O (centres unmarked),3.82%
2,COc1ccc(C)cc1S(=O)(=O)n1cnc(C)c1,16.8%
3,COc1ccc(CNC(=O)C2CCN(c3nc(OC)nc(OC)n3)CC2)cc1,-28.9%
4,COc1cccc(NC(=O)CN(C)C(=O)c2cc(C)on2)c1,11%
5,CCCSc1cc(N2CCOCC2)nc(-c2ccccc2Cl)n1,9.12%
6,COc1ccc(NC(=O)c2ccc3[nH]c(C)c(C)c3c2)c(OC)c1,9.57%
7,CCCc1cc(=O)[nH]c(SCC(=O)c2cc(C)n(CCOC)c2C)n1,11.6%
8,COc1ccc2oc(=O)cc(CN(C)Cc3ccccc3)c2c1,4.28%
9,O=C(CCSc1ccc(Cl)cc1)N1CCN(c2ncccn2)CC1,-16.3%
10,CCc1ccccc1NC(=O)CSc1nnc(C2CC2)n1CC1CCCO1 (centres unmarked),8.55%
11,CCOC(=O)C1=C(CC)Nc2ccccc2N/C1=N\S(=O)(=O)c1ccccc1OC,14.4%
12,COc1ccc(OC)c(NP(=O)(Oc2ccccc2)Oc2ccccc2)c1,10.6%
13,Cc1cc(Nc2ccccc2)c2c([N+](=O)[O-])ccc(C)c2n1,6.2%
14,Cc1ccc(OCC(=O)Nc2ccccc2F)cc1C,18.1%
15,CCOC(=O)c1ccc(S(=O)(=O)N(CCO)Cc2cc3cc(OC)c(OC)cc3[nH]c2=O)cc1,10.4%
16,CCOC(=O)c1cccc(Nc2nc(C)cc(C)n2)c1,11.5%
17,CC1CN(C(=O)COC(=O)c2cccc(NS(=O)(=O)c3ccccc3)c2)CC(C)O1 (centres unmarked),10.6%
18,NC(=O)CC(NC(=O)Cc1cccc2ccccc12)c1ccc(NC2CCN(Cc3ccccc3)CC2)c([N+](=O)[O-])c1 (centres unmarked),4.66%
19,O=[n+]1c2c(n([O-])c3ccccc31)CCCC2,3.91%
20,CCOC(=O)c1c(C)[nH]c(C)c1C(=O)CSc1nc2ccccc2n1CCC#N,11.5%
21,O=C(CN1C(=O)S/C(=C\c2cccc(Cl)c2)C1=O)NC1C=CS(=O)(=O)C1 (centres unmarked),6.17%
22,CC(C)(C)OC(=O)NCCCC[C@H](NC(=O)c1[nH]cnc1C(=O)Nc1ccc(CNC(=O)OC(C)(C)C)cc1)C(=O)OC(C)(C)C,16.1%

row,Compound,"hERG current change (%, negative = inhibition) at 1uM"
1,COc1cc(NC(=O)Cc2nn(C)c(=O)c3ccccc23)cc(OC)c1,7.58%
2,CCCNc1cc(=S)nc(N)[nH]1,12.9%
3,O=C(CN1CCN(c2ccccc2)CC1)c1c[nH]c2ccccc12,12.8%
4,Cc1cc(C(C)(C)C)ccc1NC(=O)CC(C)(C)CC(=O)O,12.7%
5,O=C(COc1ccc(-n2cnnn2)cc1)Nc1ccc(F)c(F)c1F,9.59%
6,CCCN1CCN(C(=O)Cn2cnc3ccc(S(=O)(=O)N4CCC(C)CC4)cc3c2=O)CC1,-9.74%
7,Cc1cccc(NC(=O)CSCc2cc(=O)n3ccsc3n2)c1C,11.9%
8,C/C=C(\C)C(=O)O[C@@H]([C@H](O)c1cc2ccc(=O)oc2cc1OC)C(C)(C)O,13.2%
9,CC(C)CN1C(=O)C(=O)N(CC(=O)Nc2cccc(Cl)c2Cl)C1=O,4.23%
10,COc1ccc(-c2cc3nc4c(c(=O)n3[nH]2)CCC4)cc1,1.76%
11,Cc1c(O)ccc(C(=O)COc2ccc(F)cc2)c1O,9.83%
12,COc1cc2c(cc1OC)C(C)N(S(=O)(=O)c1ccc(Cl)nc1)CC2 (centres unmarked),5.28%
13,Cc1cccc2nc(-c3cccnc3)c(NCCC(C)C)n12,0.734%
14,Cc1ccc(C(=O)NC2(C(Cl)Cl)N=C(c3ccccc3)N=C2N)cc1 (centres unmarked),8.82%
15,CC(=O)NCC12CC3CC(C1)CC(C(=O)O)(C3)C2,10.6%
16,O=C(CN1C(=O)c2ccccc2C1=O)OCC(=O)N1CCN(c2ccccc2)CC1,7.65%
17,O=C(Cn1cc2c(n1)CCCCC2)NC1CCCCCC1,6.49%
18,CSc1nc2ccc3nc(NC(=O)c4cccs4)sc3c2s1,-11.9%
19,CC(=O)Oc1ccc(N(C(C)=O)S(=O)(=O)c2ccc3ccccc3c2)cc1Br,14%
20,Cc1cccc2c1NC(=O)C2(c1ccc(O)cc1)c1ccc(O)cc1,3.4%
21,CCOC(=O)C1(CC2CCCCO2)CCN(S(=O)(=O)c2cc(C)cs2)CC1 (centres unmarked),8.07%
22,Cc1ccc(/C=C2/SC(=S)N(CCC(=O)NCCCN3CCOCC3)C2=O)cc1,0.32%

row,Compound,"hERG current change (%, negative = inhibition) at 1uM"
1,c1ccc2c(c1)CCCn1nnnc1-2,6.71%
2,O=C(Nc1ccc(Cl)c(Cl)c1)c1ccncc1,-2.67%
3,CCCCN(C)C(=O)CCCCn1c(=O)[nH]c2cc(OCC)c(OCC)cc2c1=O,4.02%
4,CCN(CC)c1ccc(C(=O)NNC(=O)CCNC(=O)c2ccccc2)cc1,-3.84%
5,O=C(NCCN1CCOCC1)c1ccc2c(c1)N(Cc1ccccc1F)C(=O)CS2,2.96%
6,COc1cccc(CNC(=O)c2ccc3c(c2)S(=O)(=O)N=C2CCCCCN23)c1,0.413%
7,CCCn1nc([N+](=O)[O-])c(C(C#N)c2nc3ccccc3s2)c(Cl)c1=O (centres unmarked),12.1%
8,CN1CCN(c2nc(-c3ccccn3)nc3ccccc23)CC1,-12.1%
9,COc1ccc(CCNC(=O)C2CCCCC2C(=O)O)cc1OC (centres unmarked),3.16%
10,O=C(COC(=O)c1cc([N+](=O)[O-])ccc1NCc1ccccc1)NC1CCCCC1,-4.65%
11,CCCn1nnc(NC(=S)NC(=O)/C=C/c2ccc(Cl)cc2)n1,20.6%
12,COc1cc(/C=C2\NC(=S)N(C)C2=O)ccc1OCc1cccc(F)c1,16.3%
13,O=C(c1cc(-c2ccccc2)nc2ccccc12)N1CCc2ccccc2C1,4.22%
14,O=C1CN(C(=O)COC(=O)/C=C/c2ccc(OC(F)F)cc2)c2ccccc2N1,4.21%
15,COC(=O)c1ccc(COc2ccc(C(C)(C)C)cc2)o1,17.1%
16,CCc1ccc(-n2c(SCC(=O)N3CCC(C(=O)O)CC3)nnc2-c2ccncc2)cc1,7.81%
17,COc1cccc(CNCCSc2nnnn2C)c1OC.Cl,4.54%
18,CCS(=O)(=O)N1CCN(C(=O)c2ccc(-c3ccccc3)cc2)CC1,3.99%
19,Cc1nnc(SCc2cc(=O)oc3ccc4ccccc4c23)n1Cc1ccccc1,1.93%
20,Cn1cc(CN2CCC(n3nccc3NC(=O)CCc3ccccc3)CC2)cn1,10.1%
21,O=C(O)CCCN(Cc1cccc(Br)c1)S(=O)(=O)c1ccc(Br)cc1,6.91%
22,O=C(NCCCN1CCOCC1)c1ccc2nc(Cc3ccccc3F)oc2c1,3.55%

row,Compound,"hERG current change (%, negative = inhibition) at 1uM"
1,CCCCC(CC)C(=O)Nc1ccc(Nc2ccccc2)cc1 (centres unmarked),6.27%
2,O=C(CCCc1ccccc1)NCc1ccc(Cl)cc1,9.08%
3,CC(C)N(Cc1nc(-c2ccc(Cl)cc2)no1)C(=O)/C=C/c1ccccc1,8.51%
4,O=C(CSc1nc2ccccc2c(=O)n1Cc1ccco1)N1CCCC1,-81.3%
5,CCC1(c2ccc(F)cc2)NC(=O)N(CC(=O)Nc2ccc(C(N)=O)cc2)C1=O (centres unmarked),19.5%
6,CCOc1ccc(C(=O)NCCn2cc(SCC(=O)Nc3cc(C)on3)c3ccccc32)cc1,5.26%
7,CCOC(=O)/C(=C\C=C1/Sc2cc(OCC)c(OCC)cc2N1CC)C(C)=O,5.98%
8,COc1ccc(CCNC(=O)CSc2nnnn2-c2ccc(OC)c(OC)c2)cc1OC,11%
9,COc1ccc(CNC(=S)Nc2ccc(-c3ccccc3)cc2)cc1,6.99%
10,COc1cc(/C=C/[N+](=O)[O-])ccc1OC(=O)c1cccnc1,16%
11,Cc1ccc(NC(=O)Cn2c([N+](=O)[O-])cnc2C)cc1,0.82%
12,CC1(C)Cc2nc3sc4c(N5CCCC5)nnnc4c3cc2CO1,11.2%
13,O=P(COCCOCCOCP(=O)(c1ccccc1)c1ccccc1)(c1ccccc1)c1ccccc1,4.89%
14,COc1ccc(S(=O)(=O)N2CCN(CC(=O)Nc3sccc3C(N)=O)CC2)cc1OC,-0.607%
15,O=C(NN=C1CCCC1)c1ccn[nH]1,12%
16,CCN1CCN(Cc2ccc(NC(=O)c3cc(NC(=O)C(=O)c4c[nH]c5ccccc45)cc(OC)c3)cc2C(F)(F)F)CC1,11.4%
17,O=C(C1CC(=O)N(c2ccc3c(c2)OCCO3)C1)N1CCN(c2cccc(C(F)(F)F)c2)CC1 (centres unmarked),10.8%
18,N#CC1=C(N)Nc2ncnn2C1c1ccc(F)cc1 (centres unmarked),-0.339%
19,CCOc1ccc(CC(=O)NCC(=O)NCc2cc(=O)n(C)c(=O)n2C)cc1,9.39%
20,COc1ccc(S(=O)(=O)N2CCCCC2)cc1NC(=O)CN(Cc1ccco1)Cc1ccco1,-2.88%
